The text below walks through data of PubChem BioAssay AID488969 (Vanderbilt High Throughput Screening Facility, 2010).

Molecules are shown by their SMILES. In all, about 110,000 compounds were measured (“z-score”: median about -0.1, highest 2% from about 2 on). This is one part of the list. The source made the active and inactive calls.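 The calls were made as follows: active = z-score in the third read window above 3 or below -3; inactive = the rest.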

The target in this assay is Metabotropic glutamate receptor 8 (Rattus norvegicus) (UniProt P70579). The assay can be described thus: rat mGluR8 modulators via GIRK flux, primary screen, cell-based, thallium flux, HTS (AID 488969). As to conditions: HEK293 rat mGluR8, GIRK (G protein-gated inwardly rectifying potassium channel) thallium flux, FluoZin2; at 10 µM; stronger effect = higher value; submaximal glutamate (EC20) added with thallium.
Sequence of UniProt P70579 (P70579 whole entry, looked up): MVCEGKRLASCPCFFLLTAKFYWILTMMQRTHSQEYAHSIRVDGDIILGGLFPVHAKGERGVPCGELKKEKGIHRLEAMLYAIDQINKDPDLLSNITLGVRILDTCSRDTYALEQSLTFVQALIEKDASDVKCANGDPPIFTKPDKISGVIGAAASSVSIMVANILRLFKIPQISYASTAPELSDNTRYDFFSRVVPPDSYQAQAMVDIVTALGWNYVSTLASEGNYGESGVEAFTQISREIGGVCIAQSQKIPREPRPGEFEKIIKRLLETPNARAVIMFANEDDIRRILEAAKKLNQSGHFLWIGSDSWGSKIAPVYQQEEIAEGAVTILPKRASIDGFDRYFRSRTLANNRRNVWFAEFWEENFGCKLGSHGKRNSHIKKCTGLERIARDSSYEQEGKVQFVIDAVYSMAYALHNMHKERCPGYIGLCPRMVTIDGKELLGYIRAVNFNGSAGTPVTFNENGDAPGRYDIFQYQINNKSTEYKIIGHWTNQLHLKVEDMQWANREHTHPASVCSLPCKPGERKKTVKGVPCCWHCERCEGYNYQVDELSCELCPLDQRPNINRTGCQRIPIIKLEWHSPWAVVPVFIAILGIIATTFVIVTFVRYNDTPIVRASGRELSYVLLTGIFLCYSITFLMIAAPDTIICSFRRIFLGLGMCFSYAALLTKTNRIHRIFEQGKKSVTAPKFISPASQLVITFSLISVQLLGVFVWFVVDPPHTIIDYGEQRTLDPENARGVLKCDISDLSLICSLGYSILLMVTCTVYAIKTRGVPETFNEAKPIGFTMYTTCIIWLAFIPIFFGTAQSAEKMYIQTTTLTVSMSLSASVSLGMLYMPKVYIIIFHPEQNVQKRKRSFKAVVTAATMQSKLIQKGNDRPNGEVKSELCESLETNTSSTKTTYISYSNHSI
Compound `O=C(N/N=C\c1c(O)ccc2ccccc12)c1ccc(S(=O)(=O)N2CCCCC2)cc1` returned a z-score of -0.225.

With `CC1(C)CC(NC(=O)C23CCC(C)(/C(=N/O)C2)C3(C)C)CC(C)(C)N1` (stereo not given), the z-score is -0.753.

The compound `CCOC(=O)/C(C#N)=C\C1=C(N2CCCC2)CC(C)(CC)OC1` (stereo not given) came in with a z-score of -0.0463.

On to `COc1cc(/C=N/N=C(/N)c2nonc2N)cc(Br)c1OCc1cccc(C)c1`, for which the z-score is 0.0652.

`Cc1ccc2c(Cl)cc(Cl)c(OCC(=O)Nc3cc(C)on3)c2n1`: the z-score was found to be 0.0628.

As for `Cc1cc(C)n(-c2cc(N3CCOCC3)ncn2)n1`, the z-score turned out to be 0.706.

Take `CC(NS(=O)(=O)c1ccc(CCC(=O)NCc2cccnc2)cc1)c1ccccc1` (stereo not given): the z-score turned out to be 0.0386.

In turn, `Cc1ccc(N2C(=O)CS/C2=C(\C(Cl)=C(Cl)Cl)[N+](=O)[O-])cc1` had a z-score of -0.494.

Consider `Cn1cnnc1SCC(=O)N1N=C2/C(=C/c3ccco3)CCCC2C1c1ccco1` (stereo not given), for which the z-score is 0.28.

The compound `CCc1nc(Sc2nnnn2-c2ccccc2)c2c3c(sc2n1)CCCC3` came in with a z-score of -0.413.

Regarding `CCc1ccccc1NC(=S)N(Cc1cccnc1)Cc1ccco1`, the z-score was -0.132.

In the case of `Oc1ccccc1-c1nc2cnccn2c1Nc1ccc2c(c1)OCCO2`, the z-score is -0.132.

The compound `COc1ccc(N2CCN(Cc3cc(OC)c(O)c([N+](=O)[O-])c3)CC2)cc1` returned a z-score of -0.284.

Consider `[O-]/C(=C(\C(=S)Nc1cccc2ccccc12)[n+]1ccccc1)c1ccc2c(c1)OCCO2`, for which the z-score was 0.312.

Consider `COc1cc(NC(=S)NC(=O)c2ccc(F)cc2)ccc1NC(=O)c1ccco1`, for which the z-score was -0.305.

`Cc1cc(C)cc(NC(=O)CSCc2nc3c(nnn3Cc3ccc(F)cc3)c(=O)[nH]2)c1` showed a z-score of -0.0802.

`Cn1c(CNS(=O)(=O)c2ccc(Cl)cc2)n[nH]c1=S` showed a z-score of 0.121.

Turning to `COc1ccc(N2CCC(CNS(=O)(=O)c3cccc(C(F)(F)F)c3)C2)cc1` (stereo not given), the z-score was 0.746.

For `CC(CN(C(N)=O)c1ccccc1O)C(=O)O` (stereo not given), the z-score is 0.238.

Regarding `COc1ccc2c(c1)c(C(O)CN1CCC(Cc3ccccc3)CC1)c(C)n2C` (stereo not given), the z-score was -0.0548.

Regarding `Cc1ccc(C)n1-c1ccc(N2CCOCC2)cc1`, the z-score worked out at 0.179.

In turn, `CCOc1ccc(Nc2nc3c(c(=O)[nH]2)CCCC3)cc1` yielded a z-score of 0.341.

Consider `Cc1cc(C(F)F)n2ncc(C(=O)O)c2n1`, for which the z-score came out at 0.566.

Regarding `CCOC(=O)c1sc(NC(=O)C2CC=CCC2C(=O)O)nc1C` (stereo not given), the z-score is -0.0679.

Compound `CC(C)c1ccc2[nH]c(O)c(N=NC(=O)c3cccc(S(=O)(=O)N4CCCCC4)c3)c2c1` came in with a z-score of -0.156.

Compound `CCN(CC)S(=O)(=O)c1cc(C(=O)Oc2cccc(-c3cnc4ccccc4n3)c2)ccc1OC` registered a z-score of -0.111.

On to `CCOC(=O)Cn1c(S(=O)(=O)Cc2ccc(F)cc2)nc(-c2ccccc2)c1-c1ccccc1`, for which the z-score was -0.277.

In turn, `CCOC(=O)c1cnc(SCC(=O)N2CCc3ccccc32)nc1N` yielded a z-score of 0.604.

On to `CC(C)COc1ccc(/C(=N/O)c2ccccc2)cc1`, for which the z-score came out at 0.298.

The compound `O=C(CCc1nc2ccccc2c(=O)[nH]1)OCc1cccc(C(F)(F)F)c1` came in with a z-score of 1.22.

As for `O=C(CN1CCN(S(=O)(=O)c2ccc3ccccc3c2)CC1)N1CCc2ccccc2C1`, the z-score is 0.0837.

Regarding `COc1ccc(-c2cc(=O)n(CCC#N)[nH]2)cc1`, the z-score is -0.346.

Compound `Cn1cc(CNC(=O)Nc2ccc3c(c2)OCO3)cn1` gave a z-score of -0.149.

As to `Cc1cc(=O)oc2cc(OCC(=O)N/N=C/c3cc([N+](=O)[O-])ccc3O)ccc12`, the z-score was 0.213.

In turn, `O=C1CC(SC(=Nc2ccccc2)Nc2ccccc2)C(=O)N1c1cccc(Cl)c1` (stereo not given) displayed a z-score of -0.104.

Regarding `COc1ccc(OC)c(NS(=O)(=O)c2ccc(NC(=O)c3ccc(NS(C)(=O)=O)cc3)cc2)c1`, the z-score was determined as 0.00942.

`CC(C)(C)SCCNC(=O)c1ccc(NS(C)(=O)=O)cc1` registered a z-score of -0.0865.

`Cc1ccccc1OCCCC(=O)NCc1ccco1` returned a z-score of 0.25.

`O=C(CN1C(=O)c2ccccc2C1=O)Nc1nnc(C2CCCO2)s1` (stereo not given) yielded a z-score of 0.703.

`CCOC(=O)C1CCN(S(=O)(=O)c2ccc3[nH]c(=O)oc3c2)CC1` yielded a z-score of 0.146.

Compound `CCn1c(CNc2ccc(Cl)cc2)nnc1SCC(=O)OC1CCCCC1` gave a z-score of -0.678.

For `NC(=O)c1nsc(C(=O)N(CC(=O)NCc2ccc3c(c2)OCO3)C2CCCCC2)c1N`, the z-score was -0.00881.

Compound `CCn1c(-c2cc(C3CC3)nc3ccccc23)n[nH]c1=S` yielded a z-score of -0.258.

Compound `COc1ccc(COC(=O)c2n[nH]c3ccccc23)cc1F` had a z-score of -1.22.

`CN(C)S(=O)(=O)c1cccc(C(=O)NCC2CCCO2)c1` (stereo not given) returned a z-score of -0.16.

For the compound `COc1ccc(NC(=O)COC(=O)c2c3c(nc4ccccc24)CCCC3)cc1Cl`, the z-score came to 0.142.

Take `CCCn1c(SCC(=O)Nc2ccccc2C(=O)OCC)nc2c1c(=O)n(C)c(=O)n2C`: the z-score was -0.41.

For the compound `C/C(=C/C(=O)N1CCc2ccccc21)C(=O)O`, the z-score stood at 0.0648.

`C=CCn1c(SCc2ccccc2C#N)nnc1-c1ccccc1O` yielded a z-score of -0.419.

The compound `O=C1c2ccccc2C(=O)N1CCCCSc1nnc2ccccn12` registered a z-score of 0.111.

In turn, `CCOC(=O)C1CCCN(S(=O)(=O)c2ccc(C)cc2)C1` (stereo not given) showed a z-score of -0.394.

Take `CCc1ccc2[nH]c(=O)c(C(c3nnnn3CC3CCCO3)N3CCN4CCCC4C3)cc2c1` (stereo not given): the z-score amounted to 0.281.

In turn, `COc1ccc(-c2cc(-c3cccs3)c(C#N)c(SCC(=O)NCc3ccccc3)n2)cc1` yielded a z-score of -0.0113.

In turn, `COc1ccc(CCCC(=O)Nc2ccccc2F)cc1` gave a z-score of 0.0152.

`CC(C)(C)OC(=O)NCCc1nnc(SCC(N)=O)o1`: the z-score was -0.0953.

As for `Cc1cccc2c(-c3ccccc3)cc(=O)[nH]c12`, the z-score was -0.146.

In turn, `COC(=O)c1c(C)[nH]c(C(=O)CSc2ccc(Cl)cc2)c1C` had a z-score of 0.107.

In the case of `CC1(C)Cc2c(C#N)c(SCCOc3ccccc3)nc(N3CCOCC3)c2CO1`, the z-score was -0.481.

`CCN1C(=O)/C(=C2/Sc3ccc(OC)cc3N2C)SC1=Nc1ccc(C(C)=O)cc1` showed a z-score of -0.0997.

`O=C(O)c1ccc(OCCn2ccnc2)cc1` yielded a z-score of -0.124.

In turn, `COc1cccc(C(=O)NC2CCN(C(=O)N3c4ccccc4Sc4ccccc43)CC2)c1` displayed a z-score of -0.497.

Turning to `O=c1[nH]cc([N+](=O)[O-])cc1Br`, the z-score was -0.212.

Turning to `Cc1ccc(/C=N/NC(=O)c2nc3nc(C)cc(C)n3n2)cc1`, the z-score was 0.431.

Compound `Clc1ccc2c(NCc3ccccn3)ncnc2c1` yielded a z-score of 0.0515.

With `COc1ccc(CCNc2oc(-c3ccccc3OC)nc2C#N)cc1OC`, the z-score was -0.803.

For `O=C(CSc1cnc2ccccc2n1)c1ccc(F)cc1`, the z-score was -0.268.

As for `COc1ccc(N(C(=O)c2ccco2)S(=O)(=O)c2cccc([N+](=O)[O-])c2)cc1`, the z-score was determined as 0.0908.

Compound `O=C(c1ccc(COc2ccc3c(c2)CCC3)o1)N1CCN(c2ccccc2)CC1` registered a z-score of 0.0784.

Compound `CCOc1ccc(OCC(=O)Nc2ccc(OC)cc2)cc1` came in with a z-score of -0.476.

In the case of `CCNc1c(C(=O)O)ccc2c1C(=O)c1ccccc1C2=O`, the z-score was -1.03.

For the compound `Cc1ccc(-c2nnc(SCC(=O)N3CCOCC3)nc2-c2ccc(C)cc2)cc1`, the z-score was -0.549.

Turning to `Cc1ccc(F)cc1NC(=O)c1cccc2nccnc12`, the z-score was -0.781.

`COc1ccc(Nc2nc(N)nc(SCc3nnc(C)s3)n2)cc1` showed a z-score of 0.0393.

Regarding `Cc1scc(C(=O)N/N=C/c2ccc(OCC(C)C)cc2)c1C`, the z-score is -0.145.

Consider `Cc1ccc(S(=O)(=O)Nc2cc(C(C)C)c(O)cc2C)cc1`, for which the z-score was -0.907.

As to `CCOC(=O)/C(=N\Nc1ccc(Cl)cc1)c1csc(Nc2ccccc2)n1`, the z-score is -0.206.

As to `O=C(Cn1nc(-c2ccccc2)ccc1=O)NCCN1CCN(Cc2ccccc2)CC1`, the z-score amounted to 0.374.

Compound `Cc1nn(C)cc1/C=N\NC(=O)c1ccc2c(c1)c(C)c(C)n2Cc1ccccc1` returned a z-score of 0.097.

As for `Cc1ccc(Cl)cc1N1CCN(C(=O)Cc2c(C(=O)O)[nH]c3ccccc23)CC1`, the z-score was -0.139.

The compound `COC(=O)[C@H](C)NC(=O)Nc1cc(Cl)ccc1C` yielded a z-score of -0.0399.

On to `S=C1Nc2ccccc2Sc2ccc(Cl)cc21`, for which the z-score is active: 4.1.

The compound `Cc1cc(C(=O)Nc2cccnc2)no1` displayed a z-score of 0.595.

With `CCc1ccc(-c2nn(-c3ccccc3)cc2C2SCC(=O)N2Cc2ccco2)cc1` (stereo not given), the z-score is -0.102.

For `O=C(NCc1ccc(Cl)cc1)c1ccccc1CCc1ccccc1`, the z-score was -0.799.

In turn, `CCOCCCNCc1cccc(OCc2ccc(F)cc2)c1` came in with a z-score of -0.0612.

On to `COc1cc(C(=S)N2CCCC2)ccc1O`, for which the z-score is 0.115.

Turning to `CCC(NC(=O)c1cccc(Cn2cc([N+](=O)[O-])cn2)c1)c1ccc(C(C)C)cc1` (stereo not given), the z-score is -0.13.

The compound `O=C(N/N=C/C=C/c1ccccc1)c1ccccc1Br` yielded a z-score of -0.846.

`O=C(c1cc(-c2ccccn2)nc2ccc(Br)cc12)N1CCc2ccccc2C1` showed a z-score of -0.609.

For `CCOC(=O)C(C)Sc1nc2c([nH]c3ccccc32)c(=O)n1C` (stereo not given), the z-score was -0.158.

On to `COc1ccc(-c2cc(C3CC3)nc3sc(C#N)c(N)c23)cc1`, for which the z-score was -0.0657.

Turning to `Cc1cc(C)cc(N(CC(=O)NC2CC3CCC2C3)S(C)(=O)=O)c1` (stereo not given), the z-score was determined as 0.958.

As for `CCCOc1nc(N)c(C#N)c(-c2ccccc2F)c1C#N`, the z-score is -0.0642.

Compound `O=C(NC1CCCCC1)C1CCN(S(=O)(=O)c2cccc3nsnc23)CC1` yielded a z-score of -0.163.

`O=C(c1ccccc1Cl)N1CCNCC1` showed a z-score of -0.329.

Take `CCNC(=O)CN(CCc1ccccc1)S(C)(=O)=O`: the z-score worked out at 0.206.

Consider `Cc1ccc(C2CC2C(=O)NNC(=S)Nc2ccc(Cl)cc2)cc1` (stereo not given), for which the z-score was active: 4.55.

For `CC1=Nn2c(nnc2-c2ccccn2)SC1`, the z-score stood at 0.109.

Compound `COc1ccc(CSc2n[nH]c(C)n2)cc1[N+](=O)[O-]` had a z-score of -0.15.

In turn, `CCOC(=O)CN1C(=N)N(c2nc(NC(C)C)nc(NC(C)C)n2)CC1=O` returned a z-score of -0.192.

In the case of `O=C1CC(c2ccccc2)c2c(O)cc(O)cc2O1` (stereo not given), the z-score is -0.0624.

Compound `CCCNC(=O)c1ccc(CNc2c(N3CCC(C(=O)OCC)CC3)c(=O)c2=O)cc1` displayed a z-score of -0.51.

`O=C(O)CCC1COc2ccccc2O1` (stereo not given) displayed a z-score of 0.155.

Compound `Cc1cccc(/C=N/n2c(-c3cc(-c4ccccc4)n[nH]3)n[nH]c2=S)c1` showed a z-score of -0.282.

On to `COC(=O)c1cn(C(=O)c2ccccc2F)nc1N`, for which the z-score is 0.378.

Compound `CC1CC(=O)C2=C(C1)Nc1ccccc1SC2c1ccc(F)cc1` (stereo not given) yielded a z-score of -0.875.

In turn, `O=C1c2ccccc2C(=O)N1c1cccc(-c2csc(Nc3ccc4c(c3)OCO4)n2)c1` came in with a z-score of 0.00893.

As for `CCN(CC)c1nc2ccccc2nc1-n1nc(C)cc1C`, the z-score is -0.474.

In the case of `Cc1ccc(CNc2ccc(Cl)cc2[N+](=O)[O-])cc1`, the z-score is -0.161.

As to `Cc1c(/C=N/NC(=O)CNc2ccccc2)c2ccccn2c1C(=O)c1ccc(Cl)cc1`, the z-score came to 0.0396.
